From PMC4336329 (PLoS ONE, 2015)
Hit rate of the full screen: of about 310,000 compounds, about 14,000 (4.5%) showed an effect of 50% or more. The effect is printed as a negative number. The list shows a part of the results.

Target: human ether-à-go-go-related gene (hERG) potassium channel (human, UniProt Q12809)
Experiment: primary screen, population patch clamp on CHO cells stably expressing hERG
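Note: peak tail current of the secondary pulse compared with the same well before compound.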

Sequence of human ether-à-go-go-related gene (hERG) potassium channel (Q12809 whole entry, looked up): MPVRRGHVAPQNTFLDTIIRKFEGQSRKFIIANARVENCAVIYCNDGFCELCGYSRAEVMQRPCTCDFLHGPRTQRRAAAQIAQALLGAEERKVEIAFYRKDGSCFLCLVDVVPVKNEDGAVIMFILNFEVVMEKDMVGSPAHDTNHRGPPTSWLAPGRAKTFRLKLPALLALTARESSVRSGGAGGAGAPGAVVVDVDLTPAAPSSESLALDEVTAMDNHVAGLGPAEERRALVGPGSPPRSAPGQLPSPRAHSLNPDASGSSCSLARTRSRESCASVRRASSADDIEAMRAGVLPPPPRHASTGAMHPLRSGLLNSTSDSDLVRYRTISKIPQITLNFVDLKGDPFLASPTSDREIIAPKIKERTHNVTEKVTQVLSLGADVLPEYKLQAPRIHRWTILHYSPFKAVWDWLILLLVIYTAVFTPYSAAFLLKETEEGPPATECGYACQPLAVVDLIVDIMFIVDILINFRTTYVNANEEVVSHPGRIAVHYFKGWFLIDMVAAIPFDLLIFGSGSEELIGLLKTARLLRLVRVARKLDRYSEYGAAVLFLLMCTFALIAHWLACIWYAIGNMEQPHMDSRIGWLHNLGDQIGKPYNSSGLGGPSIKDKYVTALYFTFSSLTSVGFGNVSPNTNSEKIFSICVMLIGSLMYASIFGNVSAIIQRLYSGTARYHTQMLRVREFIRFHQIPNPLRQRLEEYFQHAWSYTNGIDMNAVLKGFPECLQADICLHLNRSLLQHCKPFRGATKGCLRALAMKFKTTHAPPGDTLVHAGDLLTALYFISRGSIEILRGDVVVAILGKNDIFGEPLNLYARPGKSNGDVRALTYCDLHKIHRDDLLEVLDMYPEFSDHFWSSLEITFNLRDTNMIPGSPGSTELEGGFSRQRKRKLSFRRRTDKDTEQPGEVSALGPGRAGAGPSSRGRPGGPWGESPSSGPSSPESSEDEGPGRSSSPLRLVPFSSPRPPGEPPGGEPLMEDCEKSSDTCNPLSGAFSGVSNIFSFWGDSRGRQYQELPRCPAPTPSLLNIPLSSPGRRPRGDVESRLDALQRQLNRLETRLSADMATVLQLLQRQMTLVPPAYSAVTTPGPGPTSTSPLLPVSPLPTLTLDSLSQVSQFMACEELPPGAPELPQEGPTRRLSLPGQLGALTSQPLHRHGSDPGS

SMILES	hERG current change (%, negative = inhibition) at 10uM [%]
COc1cc(C(C)=O)ccc1OCC(O)CN(CCO)Cc1ccccc1 (stereo not drawn)	-4.21
COC(=O)c1c(C)n(Cc2ccccc2)c2ccc(O)cc12	14.8
Brc1c(-c2ccc3c(c2)OCO3)nc2ncccn12	4.69
COc1ccc(NC(=O)COC(C)=O)cc1Cl	11.9
CS(=O)(=O)N1CCCC(C(=O)Nc2c(F)cccc2F)C1 (stereo not drawn)	21.3
Cc1cc(C(C)(C)C)oc1C(=O)N(CC(=O)NC1CCCC1)Cc1ccccc1Cl	-3.47
O=C1NC(c2cccnc2)Nc2sc3c(c21)CCCC3 (stereo not drawn)	8.93
O=C(Cn1cnc2sc(-c3ccccc3)cc2c1=O)NCCc1ccccc1	0.983
N#Cc1c(-c2cccs2)cc(-c2cccnc2)nc1N	-5.78
O=C(CCS(=O)(=O)c1cc2c(cc1Cl)NC(=O)CO2)NCc1ccccc1	-16.1
CNc1nc(-c2ccccc2)cc(C)c1S(C)(=O)=O	-14.5
COCC(C)n1c(C)cc(C(=O)COc2ccc(C)nc2[N+](=O)[O-])c1C (stereo not drawn)	13.8
O=C(CSc1ncn[nH]1)N1CCN(c2nnc(-c3ccccc3)c3ccccc23)CC1	-0.967
COc1ccc(-c2oc3ncn(Cc4ccco4)c(=N)c3c2-c2ccc(OC)cc2)cc1	-49.4
Clc1cccc(CSc2nnc(-c3c[nH]c4ccccc34)o2)c1	11.9
CC(=O)Nc1ccc(NC(=O)C(C)Oc2ccccc2F)cc1 (stereo not drawn)	7.21
CCN(CC)CCNc1nc(-n2nc(C)cc2C)nc2sc3c(c12)CC(C)(C)OC3	-55.4
Cc1cc(Cl)cc(Cl)c1OCCN1CCCC1	-55
Nn1c(SCC(=O)Nc2ccccc2)nnc(Cc2ccccc2)c1=O	-1.24
Cc1ccc(C(=O)Nc2nnn(C)n2)cc1	8.71
Cc1ccc(NS(=O)(=O)c2ccc3c(c2)NC(=O)CO3)cc1Cl	14.6
O=C(/C=N/NC(=O)c1ccc(Cl)cc1Cl)c1ccccc1	2.34
Cc1ccc(NC(=S)N(CCCN2CCOCC2)Cc2ccco2)cc1Cl	-36.6

SMILES	hERG current change (%, negative = inhibition) at 10uM [%]
COc1ccc(C(C)NC(=O)Cc2cccs2)cc1OC (stereo not drawn)	11.4
CC(NCc1ccccc1OC1CCCC1)c1ccccc1.Cl (stereo not drawn)	-22.1
CC(C)Oc1ccc(/C=N/NC(=O)c2ccc(N(Cc3ccccc3)S(C)(=O)=O)cc2)cc1	-4.94
CC(=O)OC1CC(n2ccc(NC(=O)c3ccccc3)nc2=O)OC1CO (stereo not drawn)	7.24
COc1ccc(C2NCCC3(O)CCCCC23)c(OC)c1OC (stereo not drawn)	-2.23
COc1ccc(CCNC(=O)c2cc3c(C)nccc3[nH]c2=O)cc1OC	-22.6
Cc1[nH]c2ccccc2c1SCc1nnc(SCc2ccc(Cl)cc2)n1C	-0.801
COc1cc(CCC(O)CC(=O)CCc2ccccc2)ccc1O (stereo not drawn)	-17.3
COc1ccc(/C=C(/C#N)C(=O)Nc2cccc([N+](=O)[O-])c2)cc1C(=O)O	23.8
Cc1nnc(N2C(=O)C(=O)/C(=C(\O)c3ccc4c(c3)CC(C)O4)C2c2ccccc2)s1 (stereo not drawn)	20.9
N#CCSc1ncnc2ccccc12	13.3
COc1ccccc1NS(=O)(=O)c1cc(C)ccc1C	4.55
Cc1ccc(NC(=O)[C@@H]2CCC(=O)N2C2OC(=O)c3ccccc32)cc1Cl (stereo partly drawn)	-3.84
CC(=O)c1noc(C)c1C(=O)Nc1nccs1	11.3
CCOc1cc(C(=O)OCc2ccc(C(=O)OC)o2)cc(Br)c1OC	2.79
Cc1ccc(SCC(=O)NC(=O)NCCC(C)C)c(C)c1	-1.09
Cc1c(C(=O)Nc2ccc(Cc3ccncc3)cc2)cccc1[N+](=O)[O-]	2.56
CC(=O)NC(CCS(C)(=O)=O)C(=O)Nc1ccc(F)cc1Cl (stereo not drawn)	17.5
CCOC(=O)c1c(C)[nH]c(C)c1S(=O)(=O)NC(CC)CN1CCOCC1 (stereo not drawn)	7.32
S=C(NCc1ccccn1)Nc1ccc(Cl)cc1Cl	6.07
CCNc1nc(NCC)nc(N/N=C/c2ccc([N+](=O)[O-])o2)n1	-50.8
O=C(CCNC(=O)C1CCN(S(=O)(=O)c2ccccc2)CC1)NCc1ccccc1Cl	-8.17
Cc1ccc(C)c(NC(=O)CSc2nnc(-c3ccccc3C)o2)c1	-7.24

SMILES	hERG current change (%, negative = inhibition) at 10uM [%]
Cc1c(C)c(C)c(CN2CCCC2)c(C)c1C	0.935
COc1ccc(-c2cc(C(=O)Nc3c(C)n(C)n(-c4ccccc4)c3=O)c3ccccc3n2)cc1	29.5
Fc1ccc(N/N=C2/CC(c3ccccc3)Oc3ccccc32)c(F)c1 (stereo not drawn)	10.4
Cc1cc(/C=C2\SC(=S)NC2=O)c(C)n1C1CC1	21
CCOC(=O)c1nn(-c2ccc(F)cc2)cc1O	7.23
COc1ccccc1C1CC(c2ccc(C)cc2)Nc2ncnn21 (stereo not drawn)	-4.63
O=C(COc1ccc(Br)cc1)NNC(=O)c1ccc(-n2cncn2)c([N+](=O)[O-])c1	-61
CSc1cccc(NC(=O)c2ccccn2)c1	7.57
COc1ccc(N(C(=O)c2snc(C(N)=O)c2N)C(C(=O)NCc2ccc(F)cc2)c2ccc(C)o2)c(OC)c1 (stereo not drawn)	-0.656
O=C(c1ccccc1)C1C(c2ccccc2)C1[N+](=O)[O-] (stereo not drawn)	-9.9
COc1cccc(C(=O)COC(=O)CCC(=O)c2ccccc2)c1	-0.55
CC(=O)c1ccc(S(=O)c2ccccc2)cc1 (stereo not drawn)	-3.38
COc1ccc(NC(=O)C(c2ccc(Cl)cc2)C(C)C)cn1 (stereo not drawn)	-7.25
Cc1cc(C(=O)NCC(c2cccs2)N2CCOCC2)ccc1[N+](=O)[O-] (stereo not drawn)	4.02
CC(C)(C)c1cc2nc3c(c(=O)n2[nH]1)CN(Cc1ccccc1)C3=O	6.19
CCOC(=O)C1CCCN(C(=O)c2cn(-c3ccccc3)nc2-c2cccnc2)C1 (stereo not drawn)	-5.07
CCc1nc2ccccc2c(=O)n1NC(=O)c1c(O)c2ccccc2n(CC)c1=O	20.8
COc1cc(N2CCOCC2)ccc1/C=C1\C(=O)NC(=O)N(Cc2ccc3c(c2)OCO3)C1=O	16.5
CCOC(=O)CCCC(=O)N1CCOCCOCCOCC1	-1.38
CCc1ccc(CCC(=O)Nc2nccs2)o1	-1.14
O=c1c(=Nc2ccccc2O)c(=O)c2ccccc12	12.8
CN1C(=O)/C(=C/c2ccc(C(=O)Nc3ccc(O)cc3C(=O)O)cc2)SC1=S	15.1
COc1ccc(-c2ccc(CCC(=O)O)n2C(C)C)cc1	-4.43

SMILES	hERG current change (%, negative = inhibition) at 10uM [%]
O=C1CCN(Cc2cccnc2)CCN1[C@H](CO)Cc1ccccc1	1.21
COCCNC(=O)Cn1nc(-c2ccc(Cl)cc2)c2ccccc2c1=O	8.83
CC(CN1CCCCC1)OC(=O)c1ccco1.Cl (stereo not drawn)	16
C#CC1(NC(=O)NCCCC)CCCCC1	14.3
NS(=O)(=O)c1cccc(NC(=O)c2cc3ccccc3o2)c1	9.45
COc1ccc(-c2nnc3sc(COc4ccccc4)nn23)cc1	-9.16
C=C1C(=O)[C@@]23[C@H](O)C[C@@H]4C(C)(C)CC[C@H](O)[C@]4(C)[C@@H]2C[C@H](O)[C@@H]1[C@H]3O	-0.141
CCCCn1c(N)c(N(C)C(=O)c2cn(-c3ccccc3)nc2-c2ccccc2)c(=O)[nH]c1=O	-1.58
CCN(CC)CCCNC(=O)c1csc(Nc2cccc3ccccc23)n1	-71.6
CC(C)c1nc2cc(C(=O)NC(c3cccnc3)C(F)(F)F)ccc2o1 (stereo not drawn)	-2.83
Oc1ccc(/C=N/Nc2ccc(Cl)nn2)c(O)c1O	21.6
COc1cc([N+](=O)[O-])ccc1NC(=O)C[n+]1cccc(C)c1.[Cl-]	-5.3
COc1ccc(-n2ncc(C(=O)N3CCN(c4ccc(F)cc4)CC3)c2C)cc1	-22.6
Cc1ccc(S(=O)OCC(=O)Nc2cc(Cl)ccc2N2CCOCC2)cc1 (stereo not drawn)	3
CCOC(=O)COc1cc2c(C(=O)OCC)c(C)oc2cc1Br	21.1
Cc1cc(-c2nnc(SCC(=O)Nc3ccccc3C(F)(F)F)o2)c(C)n1-c1ccccc1	3.66
Cc1cc(C(=O)N=Nc2c(O)n(C)c3ccccc23)c(C)o1	7.83
Cc1ccc(-c2n[nH]c(=O)c3ccccc23)cc1S(=O)(=O)NC(C)(C)C	13.6
CCc1ccccc1NC1=NCC(=O)N1Cc1ccccc1	4.53
CC1CCc2c(C(=O)Nc3nccs3)csc2C1 (stereo not drawn)	14.3
CC(=O)C1=C(O)C(=O)N(c2nnn(C)n2)C1c1cccs1 (stereo not drawn)	8.42
